# This is one part of the list.
# Legend:
# Assay in all cases: glycan array binding signal (z-score within array); higher = stronger binding
# Settings in all cases: glycan notation: IUPAC condensed, linker removed
# [1] = molecular target: Fuc(a1-2)Gal(b1-4)GlcNAc(b1-3)Gal(b1-4)GlcNAc(b1-3)Gal(b1-4)GlcNAc
# Outline: (§1)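 The Consortium for Functional Glycomics database supplied 3228 glycan arrays, of which those lacking an available protein sequence were dropped. The binding signal, a within-array Z-score, was averaged across arrays of the same protein sequence and across linkers. Negative scores can be read as non-binding.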
# [2] = molecular target: Fuc(a1-2)Gal(b1-4)GlcNAc(b1-3)GalNAc
# Outline: as §1
# [3] = molecular target: Fuc(a1-2)Gal(b1-4)GlcNAc(b1-3)[Fuc(a1-2)Gal(b1-4)GlcNAc(b1-6)]GalNAc
# Outline: as §1
# [4] = molecular target: Fuc(a1-2)Gal(b1-4)GlcNAc(b1-3)[Fuc(a1-3)[Gal(b1-4)]GlcNAc(b1-6)]Gal(b1-4)Glc
# Outline: as §1
# [5] = molecular target: Fuc(a1-2)Gal(b1-4)GlcNAc(b1-6)GalNAc
# Outline: as §1
# [6] = molecular target: Fuc(a1-2)Gal(b1-4)GlcNAc6S
# Outline: as §1
# [7] = molecular target: Fuc(a1-2)Gal(b1-4)[Fuc(a1-3)]GlcNAc
# Outline: as §1
# [8] = molecular target: Fuc(a1-2)Gal(b1-4)[Fuc(a1-3)]GlcNAc(b1-2)Man(a1-3)[Fuc(a1-2)Gal(b1-4)[Fuc(a1-3)]GlcNAc(b1-2)Man(a1-6)]Man(b1-4)GlcNAc(b1-4)[Fuc(a1-6)]GlcNAc
# Outline: as §1
# [9] = molecular target: Fuc(a1-2)Gal(b1-4)[Fuc(a1-3)]GlcNAc(b1-2)[Fuc(a1-2)Gal(b1-4)[Fuc(a1-3)]GlcNAc(b1-4)]Man(a1-3)[Fuc(a1-2)Gal(b1-4)[Fuc(a1-3)]GlcNAc(b1-2)Man(a1-6)]Man(b1-4)GlcNAc(b1-4)GlcNAc
# Outline: as §1
# [10] = molecular target: Fuc(a1-2)Gal(b1-4)[Fuc(a1-3)]GlcNAc(b1-3)Gal(b1-4)[Fuc(a1-3)]GlcNAc
# Outline: as §1
# [11] = molecular target: Fuc(a1-2)Gal(b1-4)[Fuc(a1-3)]GlcNAc(b1-3)Gal(b1-4)[Fuc(a1-3)]GlcNAc(b1-3)Gal(b1-4)[Fuc(a1-3)]GlcNAc
# Outline: as §1
# [12] = molecular target: Fuc(a1-2)Gal(b1-4)[Fuc(a1-3)]GlcNAc(b1-3)GalNAc
# Outline: as §1
# [13] = molecular target: Fuc(a1-2)Gal(b1-4)[Fuc(a1-3)]GlcNAc(b1-3)[Neu5Ac(a2-6)Gal(b1-4)GlcNAc(b1-6)]Gal(b1-4)Glc
# Outline: as §1
# [14] = molecular target: Fuc(a1-2)Gal3S(b1-4)GlcNAc
# Outline: as §1
# [15] = molecular target: Fuc(a1-2)Gal6S(b1-3)GlcNAc
# Outline: as §1
# [16] = molecular target: Fuc(a1-2)Gal6S(b1-3)GlcNAc6S
# Outline: as §1
# Fuc(a1-2)Gal6S(b1-4)Glc = molecular target: Fuc(a1-2)Gal6S(b1-4)Glc
# Outline: as §1
# [17] = molecular target: Fuc(a1-2)Gal6S(b1-4)Glc6S
# Outline: as §1
# Fuc(a1-2)[Gal(a1-3)]Gal = molecular target: Fuc(a1-2)[Gal(a1-3)]Gal
# Outline: as §1
# [18] = molecular target: Fuc(a1-2)[Gal(a1-3)]Gal(b1-3)GalNAc
# Outline: as §1
# [19] = molecular target: Fuc(a1-2)[Gal(a1-3)]Gal(b1-3)GalNAc(b1-3)Gal(a1-4)Gal(b1-4)Glc
# Outline: as §1
# [20] = molecular target: Fuc(a1-2)[Gal(a1-3)]Gal(b1-3)GlcNAc
# Outline: as §1
# [21] = molecular target: Fuc(a1-2)[Gal(a1-3)]Gal(b1-3)GlcNAc(b1-2)Man(a1-3)[Fuc(a1-2)[Gal(a1-3)]Gal(b1-3)GlcNAc(b1-2)Man(a1-6)]Man(b1-4)GlcNAc(b1-4)GlcNAc
# Outline: as §1
# [22] = molecular target: Fuc(a1-2)[Gal(a1-3)]Gal(b1-3)GlcNAc(b1-2)Man(a1-3)[Fuc(a1-2)[Gal(a1-3)]Gal(b1-3)GlcNAc(b1-2)Man(a1-6)]Man(b1-4)GlcNAc(b1-4)[Fuc(a1-6)]GlcNAc
# Outline: as §1
# [23] = molecular target: Fuc(a1-2)[Gal(a1-3)]Gal(b1-3)GlcNAc(b1-3)GalNAc
# Outline: as §1
# [24] = molecular target: Fuc(a1-2)[Gal(a1-3)]Gal(b1-3)GlcNAc(b1-6)GalNAc
# Outline: as §1
# [25] = molecular target: Fuc(a1-2)[Gal(a1-3)]Gal(b1-4)Glc
# Outline: as §1
# [26] = molecular target: Fuc(a1-2)[Gal(a1-3)]Gal(b1-4)GlcNAc
# Outline: as §1
# [27] = molecular target: Fuc(a1-2)[Gal(a1-3)]Gal(b1-4)GlcNAc(b1-2)Man
# Outline: as §1
# [28] = molecular target: Fuc(a1-2)[Gal(a1-3)]Gal(b1-4)GlcNAc(b1-2)Man(a1-3)[Fuc(a1-2)[Gal(a1-3)]Gal(b1-4)GlcNAc(b1-2)Man(a1-6)]Man(b1-4)GlcNAc(b1-4)GlcNAc
# Outline: as §1
binder,measurement,setting,value
PNGase F (Flavobacterium meningosepticum) (protein) GIPAPADNTVNIKTFDKVKNAFGDGLSQSAEGTFTFPADVTAVKTIKMFIKNECPNKTCDEWDRYANVYVKNKTTGEWYEIGRFITPYWVGTEKLPRGLEIDVTDFKSLLSGNTELKIYTETWLAKGREYSVDFDIVYGTPDYKYSAVVPVVQYNKSSIDGVPYGKAHTLALKKNIQLPTNTEKAYLRTTISGWGHAKPYDAGSRGCAEWCFRTHTIAINNSNTFQHQLGALGCSANPINNQSPGNWTPDRAGWCPGMAVPTRIDVLNNSLIGSTFSYEYKFQNWTNNGTNGDAFYAISSFVIAKSNTPISAPVVTNLDPHHHHHH,glycan array binding signal (z-score),[1],-0.312
same,glycan array binding signal (z-score),[2],-0.046
same,glycan array binding signal (z-score),[3],0.021
same,glycan array binding signal (z-score),[4],-0.14
same,glycan array binding signal (z-score),[5],-0.034
same,glycan array binding signal (z-score),[6],0.153
same,glycan array binding signal (z-score),[7],-0.097
same,glycan array binding signal (z-score),[8],-0.143
same,glycan array binding signal (z-score),[9],-0.044
same,glycan array binding signal (z-score),[10],-0.304
same,glycan array binding signal (z-score),[11],0.031
same,glycan array binding signal (z-score),[12],-0.154
same,glycan array binding signal (z-score),[13],-0.323
same,glycan array binding signal (z-score),[14],-0.157
same,glycan array binding signal (z-score),[15],-0.138
same,glycan array binding signal (z-score),[16],0.15
same,glycan array binding signal (z-score),Fuc(a1-2)Gal6S(b1-4)Glc,-0.094
same,glycan array binding signal (z-score),[17],0.295
same,glycan array binding signal (z-score),Fuc(a1-2)[Gal(a1-3)]Gal,-0.116
same,glycan array binding signal (z-score),[18],-0.244
same,glycan array binding signal (z-score),[19],0.033
same,glycan array binding signal (z-score),[20],0.043
same,glycan array binding signal (z-score),[21],-0.185
same,glycan array binding signal (z-score),[22],0.023
same,glycan array binding signal (z-score),[23],0.414
same,glycan array binding signal (z-score),[24],-0.032
same,glycan array binding signal (z-score),[25],-0.065
same,glycan array binding signal (z-score),[26],-0.268
same,glycan array binding signal (z-score),[27],0.361
same,glycan array binding signal (z-score),[28],-0.273

# Source: the supplement of paper PMC8728848
